Whole data set: some 33,000 sequences, median “E-score (-0.5 to 0.5)” near -0.011, cut for the highest 2% near 0.28. The list shows a part of the results.

The results in this text go back to the supplement of paper PMC3334620.

The target of this assay is T1, Gcr1 (UniProt P07261).
T1 sequence: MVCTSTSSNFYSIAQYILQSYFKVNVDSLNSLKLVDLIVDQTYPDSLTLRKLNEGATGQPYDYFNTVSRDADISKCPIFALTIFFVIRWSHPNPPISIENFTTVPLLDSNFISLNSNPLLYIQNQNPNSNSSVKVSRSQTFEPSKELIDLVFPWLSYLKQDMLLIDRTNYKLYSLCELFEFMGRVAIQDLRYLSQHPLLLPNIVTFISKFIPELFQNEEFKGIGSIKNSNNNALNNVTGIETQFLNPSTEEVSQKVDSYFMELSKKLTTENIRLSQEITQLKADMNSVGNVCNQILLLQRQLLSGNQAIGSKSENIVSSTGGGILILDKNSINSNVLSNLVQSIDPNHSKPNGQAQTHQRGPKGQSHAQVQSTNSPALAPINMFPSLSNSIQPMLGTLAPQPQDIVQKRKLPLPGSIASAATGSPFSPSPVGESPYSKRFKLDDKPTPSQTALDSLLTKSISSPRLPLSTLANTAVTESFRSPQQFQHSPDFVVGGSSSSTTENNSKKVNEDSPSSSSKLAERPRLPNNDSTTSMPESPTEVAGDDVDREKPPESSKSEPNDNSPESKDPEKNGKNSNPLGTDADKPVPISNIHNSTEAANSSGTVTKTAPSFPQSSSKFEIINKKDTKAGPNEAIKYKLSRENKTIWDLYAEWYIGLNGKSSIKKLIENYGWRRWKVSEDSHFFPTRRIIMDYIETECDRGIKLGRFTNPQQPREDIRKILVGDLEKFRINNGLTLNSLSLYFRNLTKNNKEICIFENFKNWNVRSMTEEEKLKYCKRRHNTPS
Description: PBM E-score (8-mer binding enrichment) (E-score (-0.5 to 0.5)); higher = stronger / more preferred TF binding; most listed sequences are background and not binding sites. The following applies: protein concentration: 100 nM; construct: GST-full length. Summed up:
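Bound GST-tagged yeast transcription factors, applied at about 100-200 nM to double-stranded universal all-10-mer Agilent arrays, were detected with fluorescent anti-GST. Scans were normalised with masliner. A modified Wilcoxon-Mann-Whitney statistic, the E-score, was assigned to each ungapped eight-base word pooled with its reverse complement by the Universal PBM Analysis Suite.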
As for CTGCCATA, the “PBM E-score” value was 0.0483.

AAAGAGGG: the “PBM E-score” value was -0.00258.

As to CTCCCTCC, the “PBM E-score” value was -0.125.

For the sequence CAACTGCG, the “PBM E-score” value was 0.0257.

As to AACCATAC, the “PBM E-score” value stood at 0.0678.

In the case of TGACTACA, the “PBM E-score” value is -0.136.

Turning to CACTACGC, the “PBM E-score” value is -0.185.

On to ATCCAGGA, for which the “PBM E-score” value was determined as 0.0912.

Consider GAGCAAAA, for which the “PBM E-score” value was -0.0848.

AGGCCCTA: the “PBM E-score” value was -0.0249.

Turning to AGATACTA, the “PBM E-score” value amounted to 0.0512.

Regarding CAGGTAGG, the “PBM E-score” value was -0.0283.

With CACTTGGA, the “PBM E-score” value was 0.136.

For the sequence AGAGTCAC, the “PBM E-score” value is -0.0878.

In the case of ACTAGTAA, the “PBM E-score” value came to 0.194.

ACATTCGG: the “PBM E-score” value was 0.0771.

Consider GAACAGCC, for which the “PBM E-score” value was -0.0918.

As for CGTTAACC, the “PBM E-score” value was -0.0119.

With AATATTAT, the “PBM E-score” value is 0.0888.

For CGAAAACC, the “PBM E-score” value was -0.0887.

As for GACTGAAA, the “PBM E-score” value is -0.111.

Turning to AGCCATCA, the “PBM E-score” value was -0.145.

Turning to GAGAAAGA, the “PBM E-score” value was -0.16.

Take TCTAGGAA: the “PBM E-score” value is 0.105.

For AGTCCCTC, the “PBM E-score” value is -0.274.

With GGAAGGAA, the “PBM E-score” value was -0.0435.

As to CTCTCGGC, the “PBM E-score” value was determined as 0.0316.

AAGTGGGA: the “PBM E-score” value came out at 0.135.

For CCTCAACC, the “PBM E-score” value was -0.218.

For the sequence AGCTAGCC, the “PBM E-score” value is -0.21.

Consider ACTCCGTC, for which the “PBM E-score” value was -0.0253.

For the sequence GCCCGAAC, the “PBM E-score” value came to 0.0128.

On to AACACAAG, for which the “PBM E-score” value is 0.11.

With TGAAAACA, the “PBM E-score” value came to 0.143.

For AGAAAGCA, the “PBM E-score” value was found to be 0.06.

For ACCCACCC, the “PBM E-score” value is 0.0924.

As to GGTAGTAC, the “PBM E-score” value was -0.193.

Regarding GACATCAA, the “PBM E-score” value was 0.0894.

Regarding CTCCCGCA, the “PBM E-score” value came out at 0.0905.

Turning to AAGGTATG, the “PBM E-score” value amounted to 0.0151.

On to ATTCGAGA, for which the “PBM E-score” value is -0.0119.

For the sequence ACTTGTGA, the “PBM E-score” value was -0.00264.

With CTCAACAC, the “PBM E-score” value is -0.0327.

With GGTTGGGA, the “PBM E-score” value is -0.0666.

Turning to CATATCGA, the “PBM E-score” value is 0.036.

Turning to CAGGCGGC, the “PBM E-score” value is 0.0944.

With CCACTCCC, the “PBM E-score” value turned out to be 0.0667.

For ATCTATAC, the “PBM E-score” value was determined as 0.138.

In the case of CGGCTTGC, the “PBM E-score” value was determined as 0.0778.

As to AACACAGC, the “PBM E-score” value is -0.0364.

As to CTGACCCC, the “PBM E-score” value was -0.377.

Turning to ACCGTTGA, the “PBM E-score” value is -0.151.

Take AATCCTCT: the “PBM E-score” value was -0.0749.

Regarding ACCGTACT, the “PBM E-score” value is -0.00317.

Regarding CACTTCAG, the “PBM E-score” value was -0.0776.

As for ACACTTAT, the “PBM E-score” value is -0.0887.

With GTTGGCGA, the “PBM E-score” value is -0.0272.

Turning to CCGGATCA, the “PBM E-score” value was determined as 0.134.

Consider CCGATGCA, for which the “PBM E-score” value was -0.136.

AATACGAT: the “PBM E-score” value is 0.183.

On to ATACGCGA, for which the “PBM E-score” value was 0.102.

For the sequence CAGTCTCG, the “PBM E-score” value is -0.174.

Consider CTCTACTA, for which the “PBM E-score” value came out at 0.215.

As for ATACAGGG, the “PBM E-score” value is 0.15.

In the case of CCAGCTAG, the “PBM E-score” value was -0.00082.

As to CTCAGGCA, the “PBM E-score” value is 0.079.

As for AGAAGAAG, the “PBM E-score” value stood at 0.437.

As to CTGGTCCA, the “PBM E-score” value was -0.0598.

As to ATACCGCA, the “PBM E-score” value was -0.121.

Regarding GATAGCGA, the “PBM E-score” value was -0.14.

Turning to CCTGTGCC, the “PBM E-score” value was -0.0993.

CTTGCAAC: the “PBM E-score” value was -0.141.

Consider AAAATCCC, for which the “PBM E-score” value is -0.0483.

With GCTGACAA, the “PBM E-score” value stood at 0.0626.

As for GGTGCCCA, the “PBM E-score” value amounted to 0.382.

With ATCAACGC, the “PBM E-score” value is -0.105.

Consider AGTACGTG, for which the “PBM E-score” value is -0.139.

For ATACAGAG, the “PBM E-score” value is 0.0677.

As to GCCGCAAC, the “PBM E-score” value turned out to be 0.193.

Regarding GAACCTAC, the “PBM E-score” value was 0.0135.

For the sequence ACATCGGG, the “PBM E-score” value is -0.0963.

Consider ACTTAGTA, for which the “PBM E-score” value was -0.0141.

Turning to ACTTACAG, the “PBM E-score” value is -0.152.

Take CGCGGTCA: the “PBM E-score” value is -0.244.

GTACTAGA: the “PBM E-score” value is -0.0233.

For AAGCCTGA, the “PBM E-score” value is -0.226.
